Assay results published in article PMC4336329 (PLoS ONE, 2015).
In all, about 310,000 compounds went through this assay and about 14,000 (4.5%) showed an effect of 50% or more. Effects have a minus sign here. This is one part of the list.

target: human ether-à-go-go-related gene (hERG) potassium channel (human, UniProt Q12809); assay: primary screen, population patch clamp on CHO cells stably expressing hERG
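Further: peak tail current of the secondary pulse compared with the same well before compound.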

Chain of human ether-à-go-go-related gene (hERG) potassium channel (Q12809 whole entry, looked up): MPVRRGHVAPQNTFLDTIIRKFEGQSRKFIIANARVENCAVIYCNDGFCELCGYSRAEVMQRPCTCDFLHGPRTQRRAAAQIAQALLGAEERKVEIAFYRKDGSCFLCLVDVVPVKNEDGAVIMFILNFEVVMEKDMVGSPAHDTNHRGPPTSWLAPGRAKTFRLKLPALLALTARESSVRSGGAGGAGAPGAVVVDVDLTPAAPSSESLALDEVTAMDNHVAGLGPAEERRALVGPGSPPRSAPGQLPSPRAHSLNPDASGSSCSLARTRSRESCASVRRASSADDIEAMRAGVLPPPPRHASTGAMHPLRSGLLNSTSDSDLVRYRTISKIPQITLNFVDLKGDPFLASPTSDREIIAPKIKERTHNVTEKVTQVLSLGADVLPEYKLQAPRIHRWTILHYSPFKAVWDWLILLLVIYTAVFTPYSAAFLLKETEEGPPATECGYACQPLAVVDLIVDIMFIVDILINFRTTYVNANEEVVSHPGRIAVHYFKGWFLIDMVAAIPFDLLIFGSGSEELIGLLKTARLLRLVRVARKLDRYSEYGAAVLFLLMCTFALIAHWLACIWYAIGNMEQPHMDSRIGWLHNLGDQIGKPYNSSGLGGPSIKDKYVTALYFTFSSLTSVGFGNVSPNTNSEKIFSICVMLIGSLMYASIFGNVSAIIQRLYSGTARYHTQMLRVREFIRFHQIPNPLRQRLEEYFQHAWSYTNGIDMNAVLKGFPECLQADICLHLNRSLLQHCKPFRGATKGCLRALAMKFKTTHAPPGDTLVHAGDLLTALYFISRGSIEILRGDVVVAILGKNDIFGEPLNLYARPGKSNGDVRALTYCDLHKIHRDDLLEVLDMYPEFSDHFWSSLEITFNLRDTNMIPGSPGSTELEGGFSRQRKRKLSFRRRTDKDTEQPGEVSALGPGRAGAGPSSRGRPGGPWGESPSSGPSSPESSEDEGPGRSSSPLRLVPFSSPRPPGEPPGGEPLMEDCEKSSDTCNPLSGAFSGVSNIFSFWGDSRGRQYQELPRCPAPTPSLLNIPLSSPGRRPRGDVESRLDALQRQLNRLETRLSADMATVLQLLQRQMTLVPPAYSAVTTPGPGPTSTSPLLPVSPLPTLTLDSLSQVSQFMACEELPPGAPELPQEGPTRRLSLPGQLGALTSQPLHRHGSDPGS

| Compound | hERG current change (%, negative = inhibition) at 10uM [%] |
| --- | --- |
| O=C(COC(=O)c1ccc([N+](=O)[O-])s1)Nc1ncc(C(F)(F)F)cc1Cl | -63 |
| O=C(Cn1nnc(-c2ccccc2)n1)NC1CCS(=O)(=O)C1 (centres unmarked) | 10.9 |
| COc1ccccc1C(=O)NCCC(=O)N(C)CC(=O)Nc1ccc(C)cc1 | 7.91 |
| COc1ccc(NS(=O)(=O)c2ccc(C)c(C(=O)N(C)CCc3ccc(OC)c(OC)c3)c2)cc1 | -13.7 |
| CCOc1ccc(CNc2nc3ccccc3n2CCN2CCOCC2)cc1.Cl | -64.2 |
| COc1ccc(OC)c(C(C)NC(=O)C(C)n2cc([N+](=O)[O-])cn2)c1 (centres unmarked) | -2.64 |
| COCC(C)n1c(C)cc(C(=O)COC(=O)C2=NN(c3ccccc3)C(=O)CC2)c1C (centres unmarked) | 7.87 |
| COc1ccc(C)cc1NC(=O)NNC(=O)c1cc2ccccc2cc1O | 12.1 |
| C=CCn1c(Cc2cccs2)nnc1SCC(=O)NC1CC1 | 0.472 |
| N#C/C(=C/c1ccc(F)cc1)c1nnc(NC(=O)c2ccccc2)s1 | 11.5 |
| CC(C)(C)N=C1NC(=NC(C)(C)C)c2ccccc21 | -36.8 |
| COc1cc(/C=N/NC(=O)CC#N)cc(Br)c1O | 4.29 |
| O=C(NCCOc1ccccc1)c1cc(C(=O)NCCOc2ccccc2)cc([N+](=O)[O-])c1 | -15.2 |
| CCC1(c2ccc(F)cc2)NC(=O)N(CC(=O)NC2CC2)C1=O (centres unmarked) | 32.2 |
| CC(=O)N1CCN(S(=O)(=O)c2cccc(C(=O)NNC(=O)Cn3ccc(C(F)(F)F)n3)c2)CC1 | 10.3 |
| Cc1cc(Br)ccc1NC(=O)CNC(=O)Cn1ncc(Cl)c(Cl)c1=O | 3.98 |
| COc1ccc(OC)c2[nH]c(C(=O)N/N=C/c3ccccc3O)cc12 | 14.5 |
| COc1cccc(CC(=O)NCCCSc2ccccc2)c1 | -14.8 |
| CNCCCCOc1ccccc1-c1ccccc1.O=C(O)C(=O)O | -6.39 |

| Compound | hERG current change (%, negative = inhibition) at 10uM [%] |
| --- | --- |
| COc1ccc2c(c1)[nH]c1c(=O)n(CC3CCCO3)cnc12 (centres unmarked) | 11.1 |
| CCc1ccccc1NC(=O)CN(C)C(=O)c1cccc(S(=O)(=O)N2CCCCCC2)c1 | -25 |
| Cc1ccsc1C1C=C(c2cccc(Br)c2)Nc2ncnn21 (centres unmarked) | -16.2 |
| Cc1cc(C)cc(N(C(=O)c2csnn2)C(C(=O)NC(C)(C)C)c2ccncc2)c1 (centres unmarked) | -2.36 |
| COc1ccc(N(CC(=O)Nc2ccccc2C(N)=O)S(=O)(=O)c2ccc(C)c([N+](=O)[O-])c2)cc1 | -20.4 |
| COc1ccc(C(=O)NCC(=O)N/N=C/c2c(C)[nH]c3ccccc23)cc1 | 14.7 |
| CC(C)(C)Nc1nc(Cl)nc(NC2CCCCC2)n1 | -3.85 |
| COC(=O)c1ccc(C(=O)OC)c(NC(=O)CSCc2ccc(Br)cc2)c1 | 12.2 |
| CCOC(=O)N1CCN(CC(=O)Nc2cccc(Br)c2)CC1 | -18.9 |
| CC/C(=N\NC(=O)CNC(=O)/C=C/c1ccc(OC)cc1)c1ccccc1 | 10.5 |
| COc1cccc(/C=C/C(=O)OCC(=O)N(C)CC(=O)Nc2ccccc2Cl)c1OC | -4.44 |
| O=C(N/N=C/c1ccccc1)c1ccco1 | 10.1 |
| CN(Cc1ccon1)C(=O)CC1C(=O)NCCN1Cc1ccc(Cl)c(F)c1 (centres unmarked) | -8.07 |
| Cc1c(-c2ccccc2)n[nH]c1C(=O)NN | 0.0356 |
| Cc1cc2c(C)cc(=O)oc2c2c1NCCC2 | -9.52 |
| COc1cccc(/C=N/NC(=O)C(=O)N2CCCC2)c1 | -2.09 |
| COc1cc(/C=N/NC(=S)Nc2cccc(Cl)c2C)ccc1OCC(=O)N1CC(C)OC(C)C1 (centres unmarked) | -36 |
| COc1ccc(-c2oc3cc(O)c(OC)c(O)c3c(=O)c2OC)cc1 | -1.29 |
| Cc1cc(N2CCOCC2)c2c(N)c(C)cc(C)c2n1 | -24.6 |

| Compound | hERG current change (%, negative = inhibition) at 10uM [%] |
| --- | --- |
| CC1(c2ccccc2)NC(=O)N(CC(=O)Nc2nnc(C3CC3)s2)C1=O (centres unmarked) | 12.1 |
| Cc1occc1C(=O)Nc1ccc(S(N)(=O)=O)cc1 | 29.3 |
| CCN(CC)S(=O)(=O)c1cc(C(=O)NC2CCCCC2)ccc1C | -45.3 |
| Cc1ccc(-c2noc(CN(C(=O)CCN3C(=O)c4ccccc4C3=O)C(C)C)n2)cc1 | -63.6 |
| CCOc1cc(/C=C2/NC(=O)NC2=O)cc([N+](=O)[O-])c1O | 15.3 |
| CCn1c(SCC(=O)Nc2nc(-c3ccc(C)cc3)cs2)nnc1-c1ccccc1O | 5.72 |
| NC(=O)CC(NC(=O)Cc1ccc(Cl)cc1)c1ccc(NCCCN2CCCC2=O)c([N+](=O)[O-])c1 (centres unmarked) | 3.1 |
| Cc1ccc(/C=C/C(=O)NCc2ccccn2)o1 | -26.4 |
| COC(=O)c1ccc(Cn2cnc3c(sc4nc(N5CCOCC5)c5c(c43)CCCC5)c2=O)o1 | 3.43 |
| O=C1c2ccccc2-c2nccnc21 | 2.35 |
| Cc1cc(C)c(C#N)c(SC2CCCCC2=O)n1 (centres unmarked) | 5.19 |
| CC(Sc1nnc(C2CC2)n1C1CC1)C(=O)Nc1ccc(C(N)=O)cc1 (centres unmarked) | -21.4 |
| NC(=O)c1nn(-c2cccc(Cl)c2)c(=O)cc1O | 2.23 |
| COC(=O)C1=C(C)Nc2c(c(=O)n(C)c(=O)n2C)C1c1cccs1 (centres unmarked) | 6.87 |
| O=C(CN1CC(=O)Oc2ccccc21)OCC(=O)c1ccc(F)cc1 | 10.2 |
| COc1cccc(C2CC(c3ccccc3Cl)Nc3nc(N)nn32)c1 (centres unmarked) | -13.6 |
| COc1ccc(N(C(=O)/C=C/c2ccccc2)C2=CC3CCC(C2)N3C)cc1.Cl (centres unmarked) | -74.6 |
| CCNC(=O)CCSc1nc2cc(Cl)ccc2o1 | 6.15 |
